In article PMC12820563, “FoxP3 forms a head-to-head dimer in vivo and stabilizes its multimerization on adjacent microsatellites”:
The list shows a part of the results.

These sequences were tested against T1, MBP-FoxP1dN (Mus musculus, UniProt P58462 326-579) (assay: PD-seq (MBP pull-down with sequencing); 20 mM Tris-HCl pH 7.5, 100 mM NaCl, 1.5 mM MgCl2, 0.4 uM protein, 0.1 uM dsDNA library, 30 min, room temperature, amylose pull-down; high values mean tight binding). Details: protein: recombinant; tags: His6-MBP; chain copies: 2; dsDNA, one strand shown.
T1 sequence: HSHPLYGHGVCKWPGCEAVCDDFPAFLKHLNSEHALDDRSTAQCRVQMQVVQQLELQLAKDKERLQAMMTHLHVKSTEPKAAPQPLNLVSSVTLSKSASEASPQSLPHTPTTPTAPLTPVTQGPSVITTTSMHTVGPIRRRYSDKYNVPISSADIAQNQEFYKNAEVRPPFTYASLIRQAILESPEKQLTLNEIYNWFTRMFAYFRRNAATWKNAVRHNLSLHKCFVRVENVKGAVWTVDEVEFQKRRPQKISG
Outline: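 A degenerate double-stranded DNA library, filled in with Klenow, was added at 0.1 µM to 0.4 µM His6-MBP-tagged mouse FoxP3 or FoxP1 fragment lacking the N-terminus, expressed in E. coli. Incubation lasted 30 min at room temperature in Tris pH 7.5 buffer with NaCl and MgCl2, after which complexes were collected on amylose resin, washed three times, digested with proteinase K to free the DNA, barcoded by PCR and sequenced by Illumina. Binding is the pooled-replicate reads-per-million enrichment of pull-down over input.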
With “GATGATTGTTCTCCCAGCTGATGAATTCGTCAAGTCGAGTAAACAAATTTTCCTAATCTTTCTGTTCAAGCGCCATCTAC” the binding signal was 0.836 RPM ratio (pull-down/input).
In the case of “GATGATTGTTCTCCCAGCTGATGAATTTGTCTCCTCGAGTAAACAAATTTTCCTAATCTTTCTGTTCAAGCGCCATCTAC”, the binding signal is reported as 1.04 RPM ratio (pull-down/input).
“GATGATTGTTCTCCCAGCTGATGAATTCATCGGCTCGAGTAAACAAATTTTCCTAATCTTTCTGTTCAAGCGCCATCTAC” was tested, and the binding signal was 0.797 RPM ratio (pull-down/input).
“GATGATTGTTCTCCCAGCTGATGAATTTTCTGAATCGAGTAAACAAATTTTCCTAATCTTTCTGTTCAAGCGCCATCTAC” was tested, and the binding signal was 0.937 RPM ratio (pull-down/input).
For “GATGATTGTTCTCCCAGCTGATGAATTAACCTGATCGAGTAAACAAATTTTCCTAATCTTTCTGTTCAAGCGCCATCTAC”, the binding signal was 0.82 RPM ratio (pull-down/input).
“GATGATTGTTCTCCCAGCTGATGAATTCAACGACTCGAGTAAACAAATTTTCCTAATCTTTCTGTTCAAGCGCCATCTAC” was tested, and the binding signal was 0.648 RPM ratio (pull-down/input).
“GATGATTGTTCTCCCAGCTGATGAATTAGGAGAATCGAGTAAACAAATTTTCCTAATCTTTCTGTTCAAGCGCCATCTAC” was tested, and the binding signal was 0.99 RPM ratio (pull-down/input).
“GATGATTGTTCTCCCAGCTGATGAATTGGCTGACTCGAGTAAACAAATTTTCCTAATCTTTCTGTTCAAGCGCCATCTAC” was tested, and the binding signal was 0.801 RPM ratio (pull-down/input).
For “GATGATTGTTCTCCCAGCTGATGAATTTAACAGTTCGAGTAAACAAATTTTCCTAATCTTTCTGTTCAAGCGCCATCTAC”, the binding signal was 0.857 RPM ratio (pull-down/input).
In the case of “GATGATTGTTCTCCCAGCTGATGAATTGGAGAGCTCGAGTAAACAAATTTTCCTAATCTTTCTGTTCAAGCGCCATCTAC”, the binding signal is reported as 0.761 RPM ratio (pull-down/input).
In the case of “GATGATTGTTCTCCCAGCTGATGAATTCATACCTTCGAGTAAACAAATTTTCCTAATCTTTCTGTTCAAGCGCCATCTAC”, the binding signal is reported as 0.918 RPM ratio (pull-down/input).
With “GATGATTGTTCTCCCAGCTGATGAATTGATTGACTCGAGTAAACAAATTTTCCTAATCTTTCTGTTCAAGCGCCATCTAC” the binding signal was 1.05 RPM ratio (pull-down/input).
“GATGATTGTTCTCCCAGCTGATGAATTGTATCGTTCGAGTAAACAAATTTTCCTAATCTTTCTGTTCAAGCGCCATCTAC” was tested, and the binding signal was 1.2 RPM ratio (pull-down/input).
With “GATGATTGTTCTCCCAGCTGATGAATTCCCGTTATCGAGTAAACAAATTTTCCTAATCTTTCTGTTCAAGCGCCATCTAC” the binding signal was 0.941 RPM ratio (pull-down/input).
“GATGATTGTTCTCCCAGCTGATGAATTCGGTATCTCGAGTAAACAAATTTTCCTAATCTTTCTGTTCAAGCGCCATCTAC” was tested, and the binding signal was 0.853 RPM ratio (pull-down/input).
“GATGATTGTTCTCCCAGCTGATGAATTCTGTATATCGAGTAAACAAATTTTCCTAATCTTTCTGTTCAAGCGCCATCTAC” was tested, and the binding signal was 1.67 RPM ratio (pull-down/input).
“GATGATTGTTCTCCCAGCTGATGAATTTCCGATGTCGAGTAAACAAATTTTCCTAATCTTTCTGTTCAAGCGCCATCTAC” was tested, and the binding signal was 0.953 RPM ratio (pull-down/input).
In the case of “GATGATTGTTCTCCCAGCTGATGAATTCCCGCCCTCGAGTAAACAAATTTTCCTAATCTTTCTGTTCAAGCGCCATCTAC”, the binding signal is reported as 0.758 RPM ratio (pull-down/input).
“GATGATTGTTCTCCCAGCTGATGAATTTTCTATTTCGAGTAAACAAATTTTCCTAATCTTTCTGTTCAAGCGCCATCTAC” was tested, and the binding signal was 0.975 RPM ratio (pull-down/input).
“GATGATTGTTCTCCCAGCTGATGAATTATCGACCTCGAGTAAACAAATTTTCCTAATCTTTCTGTTCAAGCGCCATCTAC” was tested, and the binding signal was 0.931 RPM ratio (pull-down/input).
In the case of “GATGATTGTTCTCCCAGCTGATGAATTGGAGTTGTCGAGTAAACAAATTTTCCTAATCTTTCTGTTCAAGCGCCATCTAC”, the binding signal is reported as 1.13 RPM ratio (pull-down/input).
For “GATGATTGTTCTCCCAGCTGATGAATTCTCGGGTTCGAGTAAACAAATTTTCCTAATCTTTCTGTTCAAGCGCCATCTAC”, the binding signal was 0.863 RPM ratio (pull-down/input).
With “GATGATTGTTCTCCCAGCTGATGAATTTATATTTTCGAGTAAACAAATTTTCCTAATCTTTCTGTTCAAGCGCCATCTAC” the binding signal was 2.37 RPM ratio (pull-down/input).
“GATGATTGTTCTCCCAGCTGATGAATTGTGATTGTCGAGTAAACAAATTTTCCTAATCTTTCTGTTCAAGCGCCATCTAC” was tested, and the binding signal was 1.67 RPM ratio (pull-down/input).
With “GATGATTGTTCTCCCAGCTGATGAATTTACACAATCGAGTAAACAAATTTTCCTAATCTTTCTGTTCAAGCGCCATCTAC” the binding signal was 1.87 RPM ratio (pull-down/input).
With “GATGATTGTTCTCCCAGCTGATGAATTGTCCGCTTCGAGTAAACAAATTTTCCTAATCTTTCTGTTCAAGCGCCATCTAC” the binding signal was 0.894 RPM ratio (pull-down/input).
With “GATGATTGTTCTCCCAGCTGATGAATTGACTTTCTCGAGTAAACAAATTTTCCTAATCTTTCTGTTCAAGCGCCATCTAC” the binding signal was 0.98 RPM ratio (pull-down/input).
“GATGATTGTTCTCCCAGCTGATGAATTCTGTACCTCGAGTAAACAAATTTTCCTAATCTTTCTGTTCAAGCGCCATCTAC” was tested, and the binding signal was 0.846 RPM ratio (pull-down/input).
With “GATGATTGTTCTCCCAGCTGATGAATTGTGGCCGTCGAGTAAACAAATTTTCCTAATCTTTCTGTTCAAGCGCCATCTAC” the binding signal was 1 RPM ratio (pull-down/input).
With “GATGATTGTTCTCCCAGCTGATGAATTACTCAAATCGAGTAAACAAATTTTCCTAATCTTTCTGTTCAAGCGCCATCTAC” the binding signal was 1.24 RPM ratio (pull-down/input).
For “GATGATTGTTCTCCCAGCTGATGAATTGGGTTGGTCGAGTAAACAAATTTTCCTAATCTTTCTGTTCAAGCGCCATCTAC”, the binding signal was 0.82 RPM ratio (pull-down/input).
In the case of “GATGATTGTTCTCCCAGCTGATGAATTATCGCTTTCGAGTAAACAAATTTTCCTAATCTTTCTGTTCAAGCGCCATCTAC”, the binding signal is reported as 1.15 RPM ratio (pull-down/input).
For “GATGATTGTTCTCCCAGCTGATGAATTACGACGGTCGAGTAAACAAATTTTCCTAATCTTTCTGTTCAAGCGCCATCTAC”, the binding signal was 0.984 RPM ratio (pull-down/input).
In the case of “GATGATTGTTCTCCCAGCTGATGAATTGACGGATTCGAGTAAACAAATTTTCCTAATCTTTCTGTTCAAGCGCCATCTAC”, the binding signal is reported as 1.13 RPM ratio (pull-down/input).
In the case of “GATGATTGTTCTCCCAGCTGATGAATTTCTGCGTTCGAGTAAACAAATTTTCCTAATCTTTCTGTTCAAGCGCCATCTAC”, the binding signal is reported as 0.979 RPM ratio (pull-down/input).
In the case of “GATGATTGTTCTCCCAGCTGATGAATTTTCCCTCTCGAGTAAACAAATTTTCCTAATCTTTCTGTTCAAGCGCCATCTAC”, the binding signal is reported as 0.877 RPM ratio (pull-down/input).
“GATGATTGTTCTCCCAGCTGATGAATTCTTGCAATCGAGTAAACAAATTTTCCTAATCTTTCTGTTCAAGCGCCATCTAC” was tested, and the binding signal was 1.16 RPM ratio (pull-down/input).
For “GATGATTGTTCTCCCAGCTGATGAATTAAGTACCTCGAGTAAACAAATTTTCCTAATCTTTCTGTTCAAGCGCCATCTAC”, the binding signal was 0.928 RPM ratio (pull-down/input).
With “GATGATTGTTCTCCCAGCTGATGAATTTGTGGCATCGAGTAAACAAATTTTCCTAATCTTTCTGTTCAAGCGCCATCTAC” the binding signal was 1.3 RPM ratio (pull-down/input).
With “GATGATTGTTCTCCCAGCTGATGAATTAGTGACATCGAGTAAACAAATTTTCCTAATCTTTCTGTTCAAGCGCCATCTAC” the binding signal was 1.19 RPM ratio (pull-down/input).
